Data from paper PMC4336329 (PLoS ONE, 2015).
The campaign covered roughly 310,000 compounds. About 2,200 (0.71%) showed an effect of 50% or more. Effects have a minus sign here. Some of the results follow.

target: human ether-à-go-go-related gene (hERG) potassium channel (human, UniProt Q12809); assay: primary screen, population patch clamp on CHO cells stably expressing hERG
Sequence (Q12809 whole entry, looked up): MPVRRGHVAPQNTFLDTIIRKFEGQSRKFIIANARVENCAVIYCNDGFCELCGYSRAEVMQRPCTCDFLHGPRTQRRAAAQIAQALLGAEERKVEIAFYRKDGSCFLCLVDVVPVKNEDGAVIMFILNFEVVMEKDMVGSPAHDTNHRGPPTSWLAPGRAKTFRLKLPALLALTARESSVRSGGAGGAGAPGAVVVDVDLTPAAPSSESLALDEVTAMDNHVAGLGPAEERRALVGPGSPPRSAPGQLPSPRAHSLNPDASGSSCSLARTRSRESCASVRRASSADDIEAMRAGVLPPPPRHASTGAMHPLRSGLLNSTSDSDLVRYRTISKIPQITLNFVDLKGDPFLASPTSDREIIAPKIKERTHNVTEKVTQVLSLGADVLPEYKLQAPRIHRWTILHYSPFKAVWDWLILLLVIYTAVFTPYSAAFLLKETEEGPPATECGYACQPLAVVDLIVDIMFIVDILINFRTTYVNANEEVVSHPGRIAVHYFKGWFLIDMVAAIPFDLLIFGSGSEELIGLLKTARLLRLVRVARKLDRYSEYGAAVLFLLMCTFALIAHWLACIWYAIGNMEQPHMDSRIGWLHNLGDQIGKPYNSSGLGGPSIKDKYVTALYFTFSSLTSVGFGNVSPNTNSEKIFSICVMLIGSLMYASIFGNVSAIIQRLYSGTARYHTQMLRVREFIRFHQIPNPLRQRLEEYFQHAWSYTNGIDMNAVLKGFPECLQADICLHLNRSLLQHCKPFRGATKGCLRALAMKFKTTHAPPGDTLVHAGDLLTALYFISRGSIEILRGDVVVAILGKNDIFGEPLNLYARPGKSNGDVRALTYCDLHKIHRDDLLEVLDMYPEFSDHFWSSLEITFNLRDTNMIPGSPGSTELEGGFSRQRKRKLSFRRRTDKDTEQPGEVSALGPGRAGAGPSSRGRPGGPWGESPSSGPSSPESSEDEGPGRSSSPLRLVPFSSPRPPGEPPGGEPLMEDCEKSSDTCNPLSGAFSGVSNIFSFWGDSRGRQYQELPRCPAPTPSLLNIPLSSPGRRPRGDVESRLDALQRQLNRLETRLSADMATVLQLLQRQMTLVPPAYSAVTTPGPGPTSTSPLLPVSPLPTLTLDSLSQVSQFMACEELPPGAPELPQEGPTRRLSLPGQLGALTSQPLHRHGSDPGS

SMILES | hERG current change (%, negative = inhibition) at 1uM [%]
CCOC(=O)N1CCC(N(CCOC)C(=O)Nc2ccc(CC)cc2)CC1 | -4.01
O=C(CNS(=O)(=O)c1ccc(F)cc1)N1CCN(c2ccc(F)cc2)CC1 | -14.9
COc1ccc(NC(=O)CSc2nc3ccc(Nc4nc(N5CCOCC5)nc(N5CCOCC5)n4)cc3s2)cc1 | 3.97
COc1ccc(S(=O)(=O)Nc2ccccc2)cc1 | 7.2
COc1ccc(CC(=O)OCC(=O)NCC2CCCO2)cc1OC (centres unmarked) | 8.54
Cc1cccc(N2CCN(C(=O)C3CCN(c4nnc(-n5cccc5)s4)CC3)CC2C)c1 (centres unmarked) | -1.81
Cc1csc(SC(C)C(=O)Nc2ccccc2C)n1 (centres unmarked) | 0.187
CCCCNC(=S)N(C)/N=C/c1sc(N2CCCCC2)nc1-c1cccs1 | 14.6
CCOc1ccccc1NC(=O)Cn1c(=O)sc2ccccc21 | 2.95
O=C(Oc1ccc([N+](=O)[O-])cc1)c1cccnc1 | 13.1
Cc1ccc(S(=O)(=O)N=S(CCO)CCO)cc1 | -0.757
Cc1ccc(Sc2cnn(-c3ccccc3)c(=O)c2Cl)cc1 | 20.3
Cc1cc(C)c(OCC(=O)OCC(=O)N2CCN(C(=O)c3ccco3)CC2)c(C)c1 | 11.2
O=C(Oc1ccc2cc(Br)ccc2c1)N1CCCCCC1 | 14
O=C(N/N=C/c1c(O)n(Cc2ccccc2)c(=O)[nH]c1=O)c1ccccc1O | -3.24
CNc1ccc(Oc2c(F)c(F)nc(F)c2F)cc1 | 8.81
CC(C)COc1ccc(C(=O)N/C(=C/c2cccc([N+](=O)[O-])c2)C(=O)O)cc1 | 17.3
O=C(NC1CCCCC1)C(c1ccncc1)N(C(=O)Cn1nnc(-c2cccs2)n1)C1CCCC1 (centres unmarked) | -4.68
COc1ccc(CNc2ccc3c(c2)CCC3)cc1OC | 11.9
O=C(COC(=O)c1cccc(-n2cnnn2)c1)c1ccccc1 | 3.78
O=C(NCCS(=O)(=O)c1ccc(Br)cc1)c1ccc(Cl)cc1Cl | 3.11
COc1ccccc1N1CCN(C(=O)C2CCCCN2S(=O)(=O)c2ccc(C)cc2)CC1.Cl (centres unmarked) | 7.9

SMILES | hERG current change (%, negative = inhibition) at 1uM [%]
Cc1ccc(NNC(=O)c2cc(C(C)(C)C)nn2Cc2ccccc2)cc1 | 9.25
Nc1nc(NCc2ccco2)nc(N2CCCCC2)c1[N+](=O)[O-] | 9.61
CCCCn1c(N)c(N(CCC(C)C)C(=O)c2cc(S(=O)(=O)N3CCOCC3)ccc2F)c(=O)[nH]c1=O | 14
CCCCN(C(=O)CSCC(=O)Nc1cccc(C)c1)c1c(N)n(CCCC)c(=O)[nH]c1=O | 5.9
CN(CC(=O)NC1CCCCC1)S(=O)(=O)c1cccc2cccnc12 | 2.48
O=C(c1ccc(NS(=O)(=O)c2ccc3[nH]c(=O)[nH]c3c2)cc1)N1CCN(c2ccccc2)CC1 | 13
O=c1c(C=NCc2ccccc2)c(NCc2ccccc2)nc2ccccn12 | 7.25
COc1ccc(NC(=O)c2ccccc2N(Cc2ccccc2)S(C)(=O)=O)c(OC)c1 | 9.9
O=C(CCCCl)OCc1cn(-c2ccc(Cl)cc2)nn1 | 6.16
CCc1ccc(NC(=S)/N=C(\N)Nc2nc(C)c3cc(CC)ccc3n2)cc1 | 10.6
CCn1cc(CN2CCC(n3nccc3NC(=O)c3ccccc3C)CC2)c(C)n1 | -11.9
O=C(/C=C/c1ccc2c(c1)OCO2)Nc1nncs1 | 10.4
CC(C)CC(=O)NC(=S)Nc1cc(C(=O)O)ccc1Cl | 6.17
COc1ccc(OC)c(N(CC(=O)Nc2ccccc2)S(=O)(=O)c2ccccc2)c1 | 8.92
COc1ccccc1Nc1nc(=O)[nH]nc1C | 12.7
COc1cccc(NC(=O)CNC(=O)c2ccc(OC)c(OC)c2)c1 | 12.4
COc1ccc(-c2nn(-c3ccccc3)cc2/C=C2/SC(=S)N(CCC(=O)O)C2=O)c(C)c1 | 11.6
CCOC(=O)c1cc2ccc(OC(=O)c3ccco3)cc2oc1=O | -0.127
O=C(CCN1C(=O)C2C3CCC(C3)C2C1=O)OCC(=O)c1ccc(Cl)cc1 (centres unmarked) | -8.5
Cc1ccc(C)c(NC(=O)CSc2nnc([C@@H]3CCCN3C(=O)OC(C)(C)C)o2)c1 | 9.85
CC(C)C(NS(=O)(=O)c1cccc2nsnc12)C(=O)NCc1ccc2c(c1)OCO2 (centres unmarked) | 4.42
CCOc1ccccc1N1C(=O)NC(=O)C(CCc2ccncc2)(CCc2ccncc2)C1=O | -4.16

SMILES | hERG current change (%, negative = inhibition) at 1uM [%]
COC(=O)[C@H](C)NC(=O)Nc1cccc(C(F)(F)F)c1 | -6.44
COc1ccc2c(c1)[N+](C)(C)C(C)(C)C=C2C.[I-] | 10.4
Cc1ccc(-c2nc(C(=O)NCC3CCCO3)cc3c2[nH]c2ccccc23)cc1 (centres unmarked) | 1.39
CCOC(=O)c1csc(CCNC(=O)c2oc3c(Cl)cc(C)cc3c2C)n1 | 14.9
O=C(N/N=C/c1cc(Cl)cc([N+](=O)[O-])c1O)C1CC1 | 3.83
O=C(CCS(=O)(=O)c1cccc2nonc12)NCCc1ccccc1Cl | 6.08
CCn1nc(C)c(Br)c1-c1nc(-c2cccc(C)c2)no1 | 19
COc1ccc(C(=O)N/N=C/c2ccc(N(C)c3ccccc3)cc2)cc1 | 13.1
NC12CC3CC(C1)CC(CC(=O)O)(C3)C2 | 8.91
CCCNC(=O)CN(C)CC(=O)Nc1ccccc1C#N | 14.2
CCNCc1ccc(OCc2ccccc2F)c(OC)c1.Cl | -0.576
CC(=O)N(CCc1cccc(C)c1)Cc1cc2cc(C)ccc2[nH]c1=O | 7.78
COc1ccc(C2=NS(=O)(=O)N(C)C(C(=O)N3CCOCC3)=C2)cc1OC | 2.08
O=C(N/N=C(\c1ccccc1)c1ccccn1)c1ccccc1Cl | 3.77
CC(OC(=O)CCN=C1NS(=O)(=O)c2ccccc21)C(=O)NCc1ccccc1 (centres unmarked) | 11.8
O=[N+]([O-])c1ccc(S(=O)(=O)Nc2nnc(C(F)(F)F)s2)cc1 | 7.3
O=C1CC(NCCN2CCOCC2)C(=O)N1Cc1ccc(N2CCCC2=O)cc1 (centres unmarked) | 12
CN1CCN(C2CCCCC2NS(=O)(=O)c2ccc(Cl)cc2)CC1 (centres unmarked) | -5.18
CC(=O)c1cc2c(cc1NC(=O)CN1CCCCCCC1)OCO2.O=C(O)C(=O)O | 7.8
CCN(CC)S(=O)(=O)c1cc(NS(=O)(=O)c2ccccc2)ccc1C | 7.02
COCCNC(=O)Cn1cc(C(=O)c2ccco2)c2ccccc21 | 3.43
CN1CCN(C(=O)c2cc(Br)cn2C)CC1 | 15

SMILES | hERG current change (%, negative = inhibition) at 1uM [%]
Cc1ccc(-n2ccc(=O)c(-c3ccnc(SCc4cccc(Cl)c4)n3)n2)cc1 | 12
Cc1csc2cc(-c3cccc([N+](=O)[O-])c3)c(-c3cccc([N+](=O)[O-])c3)c[n+]12.[Br-] | 8.25
O=C(c1ccc(CNS(=O)(=O)c2ccccc2)cc1)N1CCC2(CC1)OCCO2 | 3.94
O=C(O)CCSc1nnc(COc2ccc([N+](=O)[O-])cc2)n1-c1ccccc1 | 8.37
CC1CCc2nc(NC(=O)c3ccc(S(=O)(=O)N4CCCc5ccccc54)cc3)sc2C1 (centres unmarked) | -3.86
COc1ccc(-n2nnnc2SCc2nc3ccccc3s2)cc1 | 11.9
Cc1c(NC(=O)CN(c2ccccc2)S(=O)(=O)c2ccc(F)cc2)c(=O)n(-c2ccccc2)n1C | -18.9
COc1ccc(C2C(C(=O)N3CCOCC3)c3ccccc3C(=O)N2c2ccc(OC)cc2)cc1 (centres unmarked) | 0.073
COc1ccc(S(=O)(=O)N2CCN(C(=O)c3c(C)nn(-c4ccccc4)c3C)CC2)cc1 | -10.8
O=C(CN1C(=O)CCC1=O)Nc1nc(-c2ccc(Cl)s2)cs1 | 4.34
CC(C)OC(=O)c1cn(-c2ccccc2)nc1-c1ccc2c(c1)OCCO2 | 10.4
CC1(C)CC(=O)C=C(c2cccc(CO)c2)C1 | 19.6
S=C(NCc1ccco1)Nc1ccc(Br)cc1Cl | 8.69
Cn1nc2c(c1C(=O)O)CCCC2 | 0.235
COc1ccc(CN(C)C(=O)CCN(c2ccccc2)S(=O)(=O)c2ccc(C)cc2)c(OC)c1 | 3.29
COc1cccc(NC(=O)c2ccccc2-c2nc(-c3ccccc3)no2)c1 | 7.38
CCOC(=O)c1c(CN2CCOCC2)oc2ccc(OC(C)=O)cc12 | 14.3
CCCCn1c(O)c(C(CC)=Nc2ccc(OCC)cc2)c(=O)[nH]c1=O | -4.03
COc1ccc(NC(=O)CSCC(=O)Nc2nnc(CC(C)C)s2)cc1 | 19.4
CNc1ccc(Br)cc(C(=O)/C=C/c2cc(OC)ccc2OC)c1=O | 2.29
